The campaign covered roughly 310,000 compounds. About 2,200 (0.71%) showed an effect of 50% or more. Effects have a minus sign here. The list shows a part of the results.

This note sets out measurements from paper PMC4336329 (PLoS ONE, 2015).

The test deals with human ether-à-go-go-related gene (hERG) potassium channel (human, UniProt Q12809). In words: primary screen, population patch clamp on CHO cells stably expressing hERG.
human ether-à-go-go-related gene (hERG) potassium channel, sequence (Q12809 whole entry, looked up): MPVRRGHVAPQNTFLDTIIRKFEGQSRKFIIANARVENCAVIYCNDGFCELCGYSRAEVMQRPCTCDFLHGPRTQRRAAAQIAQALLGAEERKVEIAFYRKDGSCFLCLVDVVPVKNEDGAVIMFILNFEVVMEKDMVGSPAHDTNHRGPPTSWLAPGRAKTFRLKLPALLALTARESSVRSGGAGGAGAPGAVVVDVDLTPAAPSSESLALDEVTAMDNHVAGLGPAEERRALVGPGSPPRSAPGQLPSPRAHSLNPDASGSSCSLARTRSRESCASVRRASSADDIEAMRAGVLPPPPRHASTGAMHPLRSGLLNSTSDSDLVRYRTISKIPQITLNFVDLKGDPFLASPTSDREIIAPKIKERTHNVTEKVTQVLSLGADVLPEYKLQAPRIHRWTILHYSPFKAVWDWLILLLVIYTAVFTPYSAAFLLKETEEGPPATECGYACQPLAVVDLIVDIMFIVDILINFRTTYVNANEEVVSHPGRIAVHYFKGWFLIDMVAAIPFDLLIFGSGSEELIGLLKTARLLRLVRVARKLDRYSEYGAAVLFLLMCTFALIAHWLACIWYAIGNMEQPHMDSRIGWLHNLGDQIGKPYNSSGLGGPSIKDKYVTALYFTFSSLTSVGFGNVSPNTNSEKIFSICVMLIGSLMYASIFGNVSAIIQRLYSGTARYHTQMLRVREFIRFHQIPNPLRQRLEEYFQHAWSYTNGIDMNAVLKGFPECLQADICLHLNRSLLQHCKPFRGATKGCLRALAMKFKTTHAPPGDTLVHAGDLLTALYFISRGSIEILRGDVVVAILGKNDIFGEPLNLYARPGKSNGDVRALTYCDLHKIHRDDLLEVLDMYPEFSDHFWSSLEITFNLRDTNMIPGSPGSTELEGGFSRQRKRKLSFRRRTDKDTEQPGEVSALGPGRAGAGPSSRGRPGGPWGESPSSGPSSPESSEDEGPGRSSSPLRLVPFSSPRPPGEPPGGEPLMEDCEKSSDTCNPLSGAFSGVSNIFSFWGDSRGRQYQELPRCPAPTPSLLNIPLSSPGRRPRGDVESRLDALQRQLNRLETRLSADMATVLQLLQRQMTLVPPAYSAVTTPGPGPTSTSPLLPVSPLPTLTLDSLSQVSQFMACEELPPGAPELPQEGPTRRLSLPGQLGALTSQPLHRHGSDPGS
For the molecule `CCc1ccc(C2c3[nH]c4ccccc4c3CCN2C(=O)c2cc[n+]([O-])cc2)cc1` (stereo not shown), the “hERG current change (%, negative = inhibition) at 1uM” value is given as 11.2%.

As for `Cc1cccc(C(=O)NC(NCc2ccco2)C(Cl)(Cl)Cl)c1` (stereo not shown), the “hERG current change (%, negative = inhibition) at 1uM” value is recorded as 8.24%. As for `Cc1cccc(N(C)C(=O)c2coc(=O)c3ccccc23)c1`, the “hERG current change (%, negative = inhibition) at 1uM” value is 18.2%.

For the molecule `O=C(NCc1ccc2c(c1)OCO2)c1nnc(Cc2ccc(F)cc2)o1`, the “hERG current change (%, negative = inhibition) at 1uM” value is recorded as 4.52%. The value for `O=C1CNC(=S)N1C1CCCCCC1` was 21.6%. For `C=CCCN(C(C(=O)OC)C(C)C)S(=O)(=O)c1ccccc1Br` (stereo not shown), the “hERG current change (%, negative = inhibition) at 1uM” value amounted to 9.39%.

Regarding `CCC(=O)Nc1ccccc1-c1nnn(CC(=O)N2c3ccccc3CC2C)n1` (stereo not shown), the “hERG current change (%, negative = inhibition) at 1uM” value is listed as 8.66%. For `Cc1cc(N2CCCC2=O)ccc1S(=O)(=O)NCCOc1ccccc1`, the “hERG current change (%, negative = inhibition) at 1uM” value is recorded as 12.6%. In the case of `Cc1ccc(S(=O)(=O)N(C)c2ccc(N)cc2)cc1` it was 7.13%. The value for `CCC(=O)Nc1nc(-c2cc([N+](=O)[O-])cs2)cs1` was 11.4%; that for `Cc1ccc2[nH]c(=O)c(-c3nc4ccccn4c3NCc3ccco3)cc2c1` was -4.3%. In the case of `COc1ccc(CNC(=O)c2csnn2)cc1` it was -0.56%; in that of `Cc1ccc(CCNC(=O)C2CCC(=O)N2Cc2ccc(F)cc2)cc1` (stereo not shown), 8.09%. Consider `OC1(c2cccc(C(F)(F)F)c2)CCN(c2ccc(-c3ccccc3)nn2)CC1`, for which the “hERG current change (%, negative = inhibition) at 1uM” value is given as 11%. In the case of `COc1ccc(/C=C(/NC(=O)c2ccccc2)C(=O)N/N=C/c2cccs2)cc1OC` it was 16.2%; in that of `O=C(Nn1nnnc1Nc1ccccc1)C12CC3CC(CC(C3)C1)C2`, 10.1%; in that of `O=C1CSC(c2ccc(Cl)cc2Cl)N1c1ccccn1` (stereo not shown), 20.6%.

Regarding `CCN(CC)S(=O)(=O)c1cccc(NC(=O)c2cc(-c3cccs3)nn2-c2ccccc2)c1`, the “hERG current change (%, negative = inhibition) at 1uM” value is recorded as 11.5%. Take `COc1ccccc1-n1cnnc1SCC(=O)Nc1cccnc1Cl`: the “hERG current change (%, negative = inhibition) at 1uM” value is reported as -5.7%. In the case of `CC(C)n1c(N2CCN(C(=O)Nc3ccccc3)CC2)nc2ccccc21` it was 5.63%; in that of `O=C(c1ccccn1)c1ncc(C(F)(F)F)cc1Cl`, 17%; in that of `COc1ccc(-c2c(C)nc3c(-c4ccc(F)cc4)cnn3c2N)cc1`, 7.77%. In the case of `CCCn1c(=NC(=O)CS(=O)(=O)c2ccccc2)sc2cc(S(C)(=O)=O)ccc21` it was 12.9%; in that of `CC(=O)Nc1cccc(-c2nc3ccc(NC(C)=O)cc3s2)c1`, -6.71%; in that of `CCNC(=O)COC(=O)CCNC(=O)c1ccc(Cl)cc1`, 7.56%. On to `COc1ccc(C(=O)c2cn[nH]c2-c2cc(Cl)ccc2O)cc1`, for which the “hERG current change (%, negative = inhibition) at 1uM” value is on record as -0.311%.

For the molecule `CS(=O)(=O)N1CCN=C1SCc1ccc(F)cc1`, the “hERG current change (%, negative = inhibition) at 1uM” value is reported as 13.9%. As to `O=S(=O)(Nc1nc2ccccc2nc1Nc1ccc2c(c1)OCO2)c1ccccc1`, the “hERG current change (%, negative = inhibition) at 1uM” value stood at 15.6%. On to `CN(C)CCCO/N=C(\c1ccccc1)c1ccncc1.O=C([O-])C(=O)[O-]`, for which the “hERG current change (%, negative = inhibition) at 1uM” value is reported as 7.01%.

As to `O=C(CCc1nnc(CCCCc2ccccc2)o1)N1CCN(CCO)CC1`, the “hERG current change (%, negative = inhibition) at 1uM” value is reported as 7.79%. In the case of `CC(=O)Nc1ccc(NC(=O)[C@H](C)NC(=O)c2ccco2)cc1` it was 22.8%.

Consider `O=c1[nH]c(CSc2nnc(COc3ccccc3)n2-c2ccccc2)nc2ccccc12`, for which the “hERG current change (%, negative = inhibition) at 1uM” value amounted to 16.4%. The value for `CCc1ccccc1NC(=O)/C(C#N)=C/c1ccc(Sc2ccccc2)o1` was 4.57%; that for `CCOC(=O)CC(=O)CSc1ncnc2c1nnn2-c1ccc(F)cc1` was 17%; that for `COc1ccc(CNC(=O)CSc2cc(=O)n(C)c3ccccc23)cc1` was 8.24%. As for `COc1ccc(NC(=O)CC2Nc3cc(C)c(C)cc3NC2=O)c([N+](=O)[O-])c1` (stereo not shown), the “hERG current change (%, negative = inhibition) at 1uM” value turned out to be 13.2%. In the case of `O=C(Nc1ccc(Cl)cc1)C1C2CCCCC21` (stereo not shown) it was 15%.

Turning to `Cc1cccc(CCNC(=O)CCNS(=O)(=O)c2cc(Br)cnc2N)c1`, the “hERG current change (%, negative = inhibition) at 1uM” value was determined as 9.25%. The value for `Cc1ccc(CC(=O)Nc2ccc(C(=O)N3CCCCC3)cc2)cc1` was 15.3%; that for `COc1ccc(NC(=O)N2CCC(NC(=O)c3ccco3)CC2)cc1` was 7.08%; that for `CC(OC(=O)c1nsc(Cl)c1Cl)C(=O)NC1CCCCC1` (stereo not shown) was 16.4%. The value for `Cl.NCC(O)(c1ccc(Cl)cc1)c1ccc(Cl)cc1` was 11.5%; that for `COC(=O)C1CCC(=S)N1C(=O)c1ccccc1` (stereo not shown) was 14.2%. The value for `COc1ccc(NCc2ccc([N+](=O)[O-])s2)cc1` was 4.56%. As for `O=C(CNC(=O)c1ccc(Br)o1)NCc1ccc(Cl)cc1`, the “hERG current change (%, negative = inhibition) at 1uM” value turned out to be 12.5%.

With `CC(C(=O)N1CCCCCC1)N(c1ccc(Cl)cc1)S(C)(=O)=O` (stereo not shown), the “hERG current change (%, negative = inhibition) at 1uM” value is given as 15%. On to `Cc1nc(S/C(=C/c2ccc(OCc3ccc(C(=O)O)cc3)cc2)C(=O)O)n[nH]1`, for which the “hERG current change (%, negative = inhibition) at 1uM” value is recorded as 12.1%.

On to `O=C(N/N=C/c1c[nH]c2ccccc12)c1cc(Br)ccc1O`, for which the “hERG current change (%, negative = inhibition) at 1uM” value amounted to 11.4%. The value for `Cc1nc(/N=C(\N)NC(=O)NC2CCCCC2)nc2ccccc12` was 7.41%; that for `CC1CCN(CCC(=O)Nc2ccc(Br)cc2)CC1.Cl` was -7.07%; that for `COc1cccc(CN2C(=O)CCC2(C)C(=O)NC2CCCC2)c1` (stereo not shown) was 6.05%. In the case of `COc1ccc(C(=O)c2ccc(CC(=O)O)s2)cc1` it was 9.58%. In the case of `CC(Oc1ccc(Cl)cc1)C(=O)Nc1ccccc1C(=O)N1CCOCC1` (stereo not shown) it was -1.27%; in that of `NC(=O)C1CCCN(C(=O)NC2CCCCC2)C1` (stereo not shown), 0.0848%; in that of `COCCn1c(-c2ccco2)csc1=Nc1cccnc1.Cl`, -2.68%. As to `COc1ccc2cc(C(c3nnnn3C3CCCC3)N3CCCCCC3)c3nnnn3c2c1` (stereo not shown), the “hERG current change (%, negative = inhibition) at 1uM” value amounted to 17.5%. In the case of `COc1ccc(Cl)cc1NC(=O)C1CC(=O)N(c2ccc(F)cc2)C1` (stereo not shown) it was 1.08%. The value for `Cc1ccc(-c2nnn(CC(=O)N(c3ccccc3F)C(C(=O)NC3CCCC3)c3ccco3)n2)o1` (stereo not shown) was 2.67%.
